Data from paper PMC7819943, “Rice protein-binding microarrays: a tool to detect cis-acting elements near promoter regions in rice”.
This is one part of the list.

molecular target: T1, OsWOX13 (Oryza sativa, UniProt Q5QMM3 1-267); test: protein-binding microarray (RPBM); PBS, 2% BSA, 51.3 ng/ul salmon testes DNA, 50 uM zinc acetate, 200 nM TF, 25 C, 1 h; high values mean tight binding; settings: protein: recombinant; tags: N-terminal polyhistidine and DsRed monomer fusion (pET32a); label: CyDye5-dUTP incorporated in the synthesized complementary strand; 3' TTTTT single-stranded linker to array surface; dsDNA, one strand shown
T1 sequence: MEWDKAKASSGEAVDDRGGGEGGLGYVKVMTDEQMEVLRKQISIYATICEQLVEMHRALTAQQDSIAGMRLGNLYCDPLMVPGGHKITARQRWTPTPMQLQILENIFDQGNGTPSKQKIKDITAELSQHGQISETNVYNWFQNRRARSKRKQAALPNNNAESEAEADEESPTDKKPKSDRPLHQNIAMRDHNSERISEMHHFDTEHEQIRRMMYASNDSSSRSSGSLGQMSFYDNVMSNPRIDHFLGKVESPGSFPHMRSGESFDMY
Procedure, shortened: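 Transcription factors were each fused at the N-terminus to a polyhistidine tag plus DsRed and expressed in E. coli BL21-CodonPlus before Ni–NTA purification. Binding to a double-stranded custom Agilent array was carried out with 200 nM protein at 25 °C for 1 h in PBS, 2% BSA, salmon testes DNA and 50 µM zinc acetate. The binding signal is per-feature fluorescence intensity, in arbitrary units, on an Axon 4000B scanner.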

**Q.** Which binding signal does the source give for “TCTAATTAGCTAGGTCCATTGATTCATCATCATCTCCATTCGGAGTCACCTAGTGCAG” here?
**A.** Its binding signal is 30100 fluorescence intensity (a.u.).

**Q.** How did the binding signal turn out when “AGGTAATCACACGGAATCAGCCATTGGAACGTTCTTGCCACGGAGTCACCTAGTGCAG” was run?
**A.** Its binding signal is 8230 fluorescence intensity (a.u.).

**Q.** “CGTTATGATCAAAATTACACAAAACTACAAGGATTTTGACCGGAGTCACCTAGTGCAG” was tested. Which binding signal did it give?
**A.** Its binding signal is 5340 fluorescence intensity (a.u.).

**Q.** Which binding signal does the source give for “CCCTGACTGATAGTGGGCCACCCACTGCCAGGTCGGCCCCCGGAGTCACCTAGTGCAG” here?
**A.** The binding signal was 35900 fluorescence intensity (a.u.).

**Q.** For “GTGATAGATCAACCTGTAAACTAAACAGAGCCTTAGCATCCGGAGTCACCTAGTGCAG”, which binding signal is on record?
**A.** Its binding signal is 7680 fluorescence intensity (a.u.).

**Q.** Which binding signal does the source give for “CATTTATTAATTGGTCATAGCCACCAGTCCTGCTGGTGTGCGGAGTCACCTAGTGCAG” here?
**A.** Its binding signal is 13500 fluorescence intensity (a.u.).

**Q.** For “TCCCAAATTTTAATTTCCGAGTCGTAACTGCGGCGGCAACCGGAGTCACCTAGTGCAG”, which binding signal is on record?
**A.** The binding signal was 8570 fluorescence intensity (a.u.).

**Q.** Which binding signal does the source give for “AGGTGCTAATCATGGATTAATTAGTTTTAATAGATTGTTCCGGAGTCACCTAGTGCAG” here?
**A.** Its binding signal is 39100 fluorescence intensity (a.u.).

**Q.** How did the binding signal turn out when “AGGCTCATCAATTAAATTCCTGTTACATGTACTACATGTACGGAGTCACCTAGTGCAG” was run?
**A.** Its binding signal is 17000 fluorescence intensity (a.u.).

**Q.** How did the binding signal turn out when “TAGATTAGTAAATTAACCATGTCCTCAAATCCCCTGTCTTCGGAGTCACCTAGTGCAG” was run?
**A.** Its binding signal is 19800 fluorescence intensity (a.u.).

**Q.** With “TGCGTGTTATAGAAAGCTAATTGCCTATTTTATGGAAGCACGGAGTCACCTAGTGCAG” as the sequence, how does the binding signal read?
**A.** The binding signal was 4640 fluorescence intensity (a.u.).

**Q.** “TTGCACAAGTCAGATTGATGAGATTGCCAATTGTTTAACACGGAGTCACCTAGTGCAG” was tested. Which binding signal did it give?
**A.** Its binding signal is 15600 fluorescence intensity (a.u.).

**Q.** With “TAAAATAAATTGACAATATAAATTGATATGAAATATACTCCGGAGTCACCTAGTGCAG” as the sequence, how does the binding signal read?
**A.** Its binding signal is 31700 fluorescence intensity (a.u.).

**Q.** “GCGATAAATAGACACATATGGATGCATGCACAATGGCACACGGAGTCACCTAGTGCAG” was tested. Which binding signal did it give?
**A.** The binding signal was 8870 fluorescence intensity (a.u.).

**Q.** For “AGGTGGACCCACTAATTAATTTTGCCAATTAAATCTCCATCGGAGTCACCTAGTGCAG”, which binding signal is on record?
**A.** Its binding signal is 14000 fluorescence intensity (a.u.).

**Q.** Which binding signal does the source give for “AAACAAACTAACATGGATTGATTTTCTATAGGATGGAGGGCGGAGTCACCTAGTGCAG” here?
**A.** The binding signal was 25200 fluorescence intensity (a.u.).

**Q.** For “CCAATATTAATTTCGGTAAAATACGAAATGACTAATATGCCGGAGTCACCTAGTGCAG”, which binding signal is on record?
**A.** Its binding signal is 6210 fluorescence intensity (a.u.).

**Q.** “CTACAATTATTTATATATTTTAAGTTTAAATATACTGTAACGGAGTCACCTAGTGCAG” was tested. Which binding signal did it give?
**A.** Its binding signal is 5320 fluorescence intensity (a.u.).

**Q.** Which binding signal does the source give for “TTCATTAATTAATAATACTAGCCTAGTGGTGACACCACCCCGGAGTCACCTAGTGCAG” here?
**A.** Its binding signal is 24100 fluorescence intensity (a.u.).

**Q.** “TTCCTTATCAATCTAATAAATAGTCGCCATTGCAGATGGACGGAGTCACCTAGTGCAG” was tested. Which binding signal did it give?
**A.** Its binding signal is 10900 fluorescence intensity (a.u.).

**Q.** Which binding signal does the source give for “AATAGAAATTGGACATTCTACCGCTGCTAAGATTTTGCCACGGAGTCACCTAGTGCAG” here?
**A.** Its binding signal is 3630 fluorescence intensity (a.u.).

**Q.** “AGAATTGAATTAACTTCCCTGCAAATATCACAGAATGCTTCGGAGTCACCTAGTGCAG” was tested. Which binding signal did it give?
**A.** The binding signal was 3910 fluorescence intensity (a.u.).

**Q.** How did the binding signal turn out when “CAAGCTAAATTGTCAAATAGGTCGAATATTTTGCATCCTGCGGAGTCACCTAGTGCAG” was run?
**A.** The binding signal was 6560 fluorescence intensity (a.u.).

**Q.** “GATGATTTAGCCCAAAAGGTGTTACTGATCACACTACTTGCGGAGTCACCTAGTGCAG” was tested. Which binding signal did it give?
**A.** Its binding signal is 10600 fluorescence intensity (a.u.).

**Q.** How did the binding signal turn out when “TCGTGATTTTGATCAACTTAACATGGAAAATGGCCATCCTCGGAGTCACCTAGTGCAG” was run?
**A.** The binding signal was 32200 fluorescence intensity (a.u.).

**Q.** How did the binding signal turn out when “GTATTACGCTATATTTAACATAATTGCTCCTATCATGTGTCGGAGTCACCTAGTGCAG” was run?
**A.** The binding signal was 3680 fluorescence intensity (a.u.).

**Q.** For “TCCACCAATAATTAGACCAATCGTGAAACTATCGAGAGAACGGAGTCACCTAGTGCAG”, which binding signal is on record?
**A.** Its binding signal is 7660 fluorescence intensity (a.u.).

**Q.** Which binding signal does the source give for “CAAAATGGGATTTAAATTTTGTCTCGGACCTCACTAAAATCGGAGTCACCTAGTGCAG” here?
**A.** Its binding signal is 6390 fluorescence intensity (a.u.).

**Q.** For “AAAATTAAAAGGACATGATTATTGATACCGGATTTTGAAACGGAGTCACCTAGTGCAG”, which binding signal is on record?
**A.** The binding signal was 11200 fluorescence intensity (a.u.).

**Q.** With “AATTAATTACGTGCTAGTGTACGCTATTCACTACTTCATGCGGAGTCACCTAGTGCAG” as the sequence, how does the binding signal read?
**A.** The binding signal was 29600 fluorescence intensity (a.u.).

**Q.** For “TTAAATTAATTTGGGCCATTCGATCTTCATCAGGATATCTCGGAGTCACCTAGTGCAG”, which binding signal is on record?
**A.** The binding signal was 39800 fluorescence intensity (a.u.).

**Q.** With “CGTTGATCATTTATTGACATTATAGTTACTCTGCAGTGCACGGAGTCACCTAGTGCAG” as the sequence, how does the binding signal read?
**A.** The binding signal was 14600 fluorescence intensity (a.u.).

**Q.** For “AAATAATAATTATTTATTTTGTTGTGACTTGGTTTATAACCGGAGTCACCTAGTGCAG”, which binding signal is on record?
**A.** The binding signal was 14300 fluorescence intensity (a.u.).

**Q.** Which binding signal does the source give for “GATAATAATATTGCAATTTGCAAACATTACACTTGTACAGCGGAGTCACCTAGTGCAG” here?
**A.** The binding signal was 4080 fluorescence intensity (a.u.).

**Q.** For “CTTAATTAAGTCACCATAAACACGGCGCGCCATTAGGGGACGGAGTCACCTAGTGCAG”, which binding signal is on record?
**A.** The binding signal was 21300 fluorescence intensity (a.u.).

**Q.** Which binding signal does the source give for “CATCATTTCAATTTCAATTAAACTTTTAATTTTAGCGTGACGGAGTCACCTAGTGCAG” here?
**A.** The binding signal was 7710 fluorescence intensity (a.u.).

**Q.** For “GACTAATCACAATGCATACGTCAGATGAAGCGTGCGTAGCCGGAGTCACCTAGTGCAG”, which binding signal is on record?
**A.** The binding signal was 5180 fluorescence intensity (a.u.).

**Q.** “CTAGATTGTTGGTGTTGTGGGGTCAGGCTAAGCTACAAGTCGGAGTCACCTAGTGCAG” was tested. Which binding signal did it give?
**A.** The binding signal was 15100 fluorescence intensity (a.u.).

**Q.** With “TCTGCATTTATTAATAATTTTATAGATGAATAAATAGGTTCGGAGTCACCTAGTGCAG” as the sequence, how does the binding signal read?
**A.** The binding signal was 3750 fluorescence intensity (a.u.).

**Q.** Which binding signal does the source give for “TACTACCAAATTGCAAATCACAAATTGAATGCTATCAGATCGGAGTCACCTAGTGCAG” here?
**A.** Its binding signal is 29900 fluorescence intensity (a.u.).

**Q.** How did the binding signal turn out when “TAATAATTAATGGTATCATAAATAGAAAATAGAAAGCATGCGGAGTCACCTAGTGCAG” was run?
**A.** The binding signal was 24300 fluorescence intensity (a.u.).

**Q.** With “CTTCTTCAATCCAGCTAATTAATTACACACACCTGACACACGGAGTCACCTAGTGCAG” as the sequence, how does the binding signal read?
**A.** Its binding signal is 27200 fluorescence intensity (a.u.).
